These results are taken from PubChem BioAssay AID212 (DTP/NCI, 2004).

The assay relates to BDF1 mice, colon carcinoma 38 sc, T/C %. Briefly: NCI In Vivo Anticancer Drug Screen. Data for tumor model Colon Carcinoma 38 (subcutaneous) in B6D2F1 (BDF1) mice. As to conditions: endpoint: median tumor weight (est.), higher = larger tumour. Summed up: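 Compound antitumor activity was assessed in mice carrying transplantable tumors. Survival or tumor size was recorded, and each value is the treated-group measurement divided by that of the vehicle-treated control group.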

The mark [1] stands for this setting: dose: 25.0 mg/kg/injection, schedule: Q07DX002 (ip), vehicle: saline with Tween-80.
[2] abbreviates: dose: 100.0 mg/kg/injection, schedule: Q07DX002 (ip), vehicle: saline with Tween-80.
Where [3] appears, read: dose: 200.0 mg/kg/injection, schedule: Q07DX002 (ip), vehicle: saline with Tween-80.
Setting [4] is: dose: 400.0 mg/kg/injection, schedule: Q07DX002 (ip), vehicle: saline with Tween-80.
Where [5] appears, read: dose: 100.0 mg/kg/injection, schedule: Q07DX002 (ip), vehicle: Klucel (hydroxypropylcellulose) (HPC).
[6] abbreviates: dose: 200.0 mg/kg/injection, schedule: Q07DX002 (ip), vehicle: Klucel (hydroxypropylcellulose) (HPC).
[7] abbreviates: dose: 25.0 mg/kg/injection, schedule: Q07DX002 (ip), vehicle: Klucel (hydroxypropylcellulose) (HPC).
Where [8] appears, read: dose: 50.0 mg/kg/injection, schedule: Q07DX002 (ip), vehicle: Klucel (hydroxypropylcellulose) (HPC).
[9] abbreviates: dose: 50.0 mg/kg/injection, schedule: Q07DX002 (ip), vehicle: saline with Tween-80.
Setting [10] is: dose: 12.5 mg/kg/injection, schedule: Q07DX002 (ip), vehicle: saline with Tween-80.
Setting [11] is: dose: 6.25 mg/kg/injection, schedule: Q07DX002 (ip), vehicle: saline with Tween-80.

SMILES strings stand for the structures. Results filed as inconclusive are left out. Certain results were filed several times, with different values. This list holds those alone. The source may hold further records. Values given together are repeats in other runs, samples, wells, individuals or studies. *1 amine or outer side, *2 acyl side, *3 side chain or, on linkers, in order; H or OH if unused. Where a SMILES comes first, the peptide text is derived from it. Bridges are numbered along the chain shown (N, C = ends). Roman numbers before positions name the chains, in order. [ ]: non-standard residue; d: D form. Actinocin(1to9) = Cc1c2oc3c(C)ccc(C(=O)[*:2])c3nc-2c(C(=O)[*:1])c(N)c1=O; NMeV = CN[CH](C(=O)O)C(C)C; Aze = O=C(O)[CH]1CCN1; Sar = CNCC(=O)O

With `COc1ccc(C(=O)c2no[n+]([O-])c2C(=O)c2ccc(OC)cc2)cc1`, the T/C was 56 % of control and 84 % of control under setting [1]; 52 % of control and 101 % of control under setting [2]; 39 % of control and 104 % of control under setting [3]; 61 % of control and 121 % of control under setting [4].
Turning to `CC(=O)Oc1ccc[nH]c1=O`, the T/C under setting [4] is 72 % of control and 123 % of control.
Consider `O=C(O)C1(NO)CCCCC1`, for which the T/C runs as follows: under setting [5], 60 % of control and 154 % of control; under setting [6], 44 % of control and 101 % of control.
For `CCCCCCC/C=C/C(=O)OC1C(OC2C(OC(CCCCCCC)CC(=O)OC(CCCCCCC)CC(=O)O)OC(C)C(O)C2O)OC(C)C(O)C1O` (stereo not drawn), the T/C (dose: 56.0 mg/kg/injection, schedule: Q07DX002 (ip), vehicle: Klucel (hydroxypropylcellulose) (HPC)) was 95 % of control, 105 % of control, 121 % of control.
In the case of `CCCCCC[C@H]([C@H](C)O)n1cnc2c(N)ncnc21`, the T/C by setting is: under setting [7], 83 % of control and 112 % of control; under setting [8], 85 % of control and 121 % of control; under setting [6], 57 % of control and 120 % of control.
On to `Nc1ccc(Cl)cc1N`, for which the T/C was 61 % of control and 105 % of control under setting [9]; 65 % of control and 122 % of control under setting [2]; 76 % of control and 109 % of control under setting [3]; 80 % of control and 120 % of control under setting [4].
As to `CC1(C)CC(=O)C(CSC(=O)c2ccccc2)C(=O)C1`, under setting [8], the T/C was 65 % of control and 103 % of control.
Turning to `O=NN(CCF)C(=O)NC1CCCCC1`, the T/C under setting [7] was 49 % of control and 76 % of control.
`CCCCCCCC(=O)N/N=C(\CO)[C@]1(O)Cc2c(O)c3c(c(O)c2[C@@H](OC2CC(N)C(O)C(C)O2)C1)C(=O)c1c(OC)cccc1C3=O` (stereo partly drawn): the T/C (dose: 13.5 mg/kg/injection, schedule: Q07DX002 (ip), vehicle: distilled water + Tween-80) was 45 % of control and 101 % of control; the T/C (dose: 27.0 mg/kg/injection, schedule: Q07DX002 (ip), vehicle: distilled water + Tween-80) is 21 % of control and 73 % of control.
As to `CN(C)N=Nc1ccccc1`, the T/C is 57 % of control and 91 % of control (dose: 6.25 mg/kg/injection, schedule: Q07DX002 (ip), vehicle: Klucel (hydroxypropylcellulose) (HPC)); 23 % of control and 54 % of control under setting [8].
With `N=C(N)SCc1c2ccccc2c(CSC(=N)N)c2ccccc12`, the T/C by setting is: (dose: 25.0 mg/kg/injection, schedule: Q07DX002 (ip), vehicle: saline) 63 % of control and 89 % of control; (dose: 100.0 mg/kg/injection, schedule: Q07DX002 (ip), vehicle: saline) 68 % of control and 114 % of control; (dose: 200.0 mg/kg/injection, schedule: Q07DX002 (ip), vehicle: saline) 19 % of control and 53 % of control.
`CCC1OCC(C(Cl)CCl)O1` (stereo not drawn): under setting [8], the T/C is 104 % of control and 151 % of control.
Turning to `O=C1CN(Cc2ccc3c(c2)OCO3)NO1`, the T/C is 81 % of control, 108 % of control, 113 % of control under setting [9]; 66 % of control, 107 % of control, 109 % of control under setting [2]; 42 % of control, 57 % of control, 107 % of control under setting [3]; 54 % of control and 112 % of control under setting [4].
For `COc1cc2c3c(cccc3c1)C(=O)N(CCN(C)C)C2=O`, the T/C (dose: 20.0 mg/kg/injection, schedule: Q07DX002 (ip), vehicle: saline with Tween-80) is 78 % of control and 116 % of control.
As to `CC(=O)Nc1ccc(/C=N/NC(N)=S)cc1`, the T/C reads like this: (dose: 112.0 mg/kg/injection, schedule: Q07DX002 (ip), vehicle: saline with Tween-80) 57 % of control and 183 % of control; under setting [6], 70 % of control and 120 % of control; (dose: 225.0 mg/kg/injection, schedule: Q07DX002 (ip), vehicle: saline with Tween-80) 87 % of control and 153 % of control; (dose: 800.0 mg/kg/injection, schedule: Q07DX002 (ip), vehicle: Klucel (hydroxypropylcellulose) (HPC)) 70 % of control and 154 % of control; (dose: 1600.0 mg/kg/injection, schedule: Q07DX002 (ip), vehicle: Klucel (hydroxypropylcellulose) (HPC)) 77 % of control and 120 % of control.
On to `CCCCOC(=O)/C=C(\Br)C(=O)OCCCC`, for which, under setting [10], the T/C is 86 % of control and 112 % of control.
Consider `Cc1c2oc3c(C)ccc(C(=O)NC4C(=O)NC(C(C)C)C(=O)N5CCCC5C(=O)N(C)CC(=O)N(C)C(C(C)C)C(=O)OC4C)c3nc-2c(C(=O)NC2C(=O)NC(C(C)C)C(=O)N3CCC3C(=O)N(C)CC(=O)N(C)C(C(C)C)C(=O)OC2C)c(N)c1=O` (stereo not drawn) (I: TV[Aze][Sar][NMeV] / II: TVP[Sar][NMeV]; ester I:1-I:C, II:1-II:C; linker I:N-II:N via Actinocin(1to9); configuration not given here), for which the T/C (dose: 75.0 micrograms/kg/injection, schedule: Q07DX002 (ip), vehicle: saline + alcohol) was 81 % of control, 97 % of control, 112 % of control; the T/C (dose: 150.0 micrograms/kg/injection, schedule: Q07DX002 (ip), vehicle: saline + alcohol) is given as 50 % of control, 65 % of control, 90 % of control; the T/C (dose: 300.0 micrograms/kg/injection, schedule: Q07DX002 (ip), vehicle: saline + alcohol) is listed as 61 % of control, 71 % of control, 100 % of control; the T/C (dose: 1200.0 micrograms/kg/injection, schedule: Q07DX002 (ip), vehicle: saline + alcohol) was 27 % of control and 61 % of control.
For the compound `CCN(CC)CCOC(=O)Cc1cccc2c(=O)cc(-c3ccccc3)oc12`, the T/C by setting is: (dose: 12.5 mg/kg/injection, schedule: Q07DX002 (ip), vehicle: saline) 59 % of control and 105 % of control; under setting [5], 50 % of control and 107 % of control.
Consider `CSc1ccc2c(c1)C(N1CCN(C)CC1)Cc1ccccc1S2` (stereo not drawn), for which the T/C under setting [11] is 39 % of control and 65 % of control; the T/C under setting [10] is 35 % of control and 67 % of control; the T/C under setting [1] was 57 % of control and 99 % of control.
With `CCOC1=Cc2c(oc3c(C(C)(C)C)cc(OCC)cc23)OC(C(C)(C)C)=C1`, for the setting “dose: 3.12 mg/kg/injection, schedule: Q07DX002 (ip), vehicle: saline with Tween-80”, the T/C is listed as 26 % of control, 71 % of control, 113 % of control.
On to `COC(=O)Nc1ccc(Cc2ccc(NC(=O)OC)cc2)cc1`, for which the T/C reads like this: under setting [10], 76 % of control, 99 % of control, 103 % of control; under setting [1], 78 % of control and 122 % of control; under setting [9], 43 % of control, 108 % of control, 111 % of control; under setting [2], 58 % of control, 93 % of control, 117 % of control.
`Nc1nc(N)c2c(Cl)c(CNc3ccc(Cl)c(Cl)c3)ccc2n1`: the T/C runs as follows: under setting [11], 69 % of control, 73 % of control, 115 % of control; under setting [1], 45 % of control, 76 % of control, 77 % of control; under setting [9], 24 % of control, 65 % of control, 80 % of control.
`c1ccc([C@H]2CN3CCSC3=N2)cc1`: the T/C was 66 % of control and 165 % of control (dose: 2.5 mg/kg/injection, schedule: Q07DX003 (ip), vehicle: saline); 75 % of control and 117 % of control (dose: 5.0 mg/kg/injection, schedule: Q07DX003 (ip), vehicle: saline); 77 % of control and 120 % of control (dose: 20.0 mg/kg/injection, schedule: Q07DX003 (ip), vehicle: saline).
Take `Cc1cc(C)c(-c2cc(O)c(C)cc2O)c(C)c1`: the T/C reads like this: under setting [7], 43 % of control and 106 % of control; under setting [5], 93 % of control and 174 % of control; under setting [6], 122 % of control and 180 % of control; (dose: 400.0 mg/kg/injection, schedule: Q07DX002 (ip), vehicle: Klucel (hydroxypropylcellulose) (HPC)) 91 % of control and 159 % of control.
For `C[C@H]1C[C@@H]2[C@H]([C@@H](O)C[C@@]3(C)[C@H]2CC[C@]3(O)C(=O)CO)[C@@]2(C)C=CC(=O)C=C12`, the T/C is, setting by setting: (dose: 12.5 mg/kg/injection, schedule: Q07DX002 (ip), vehicle: Klucel (hydroxypropylcellulose) (HPC)) 52 % of control and 92 % of control; under setting [8], 74 % of control and 112 % of control.
With `COc1cc2c(cc1O)N=C[C@@H]1CCC(O)N1C2=O` (mixture of isomers), the T/C (dose: 2.0 mg/kg/injection, schedule: Q07DX002 (ip), vehicle: saline) was 86 % of control and 116 % of control.
